# Measured values as given in PMC4336329 (PLoS ONE, 2015).
# About 2,200 (0.71%) of roughly 310,000 compounds showed an effect of 50% or more. Effects have a minus sign here. The list shows a part of the results.
# Biological target: human ether-à-go-go-related gene (hERG) potassium channel (human, UniProt Q12809)
# Assay: primary screen, population patch clamp on CHO cells stably expressing hERG
# Chain of human ether-à-go-go-related gene (hERG) potassium channel (Q12809 whole entry, looked up): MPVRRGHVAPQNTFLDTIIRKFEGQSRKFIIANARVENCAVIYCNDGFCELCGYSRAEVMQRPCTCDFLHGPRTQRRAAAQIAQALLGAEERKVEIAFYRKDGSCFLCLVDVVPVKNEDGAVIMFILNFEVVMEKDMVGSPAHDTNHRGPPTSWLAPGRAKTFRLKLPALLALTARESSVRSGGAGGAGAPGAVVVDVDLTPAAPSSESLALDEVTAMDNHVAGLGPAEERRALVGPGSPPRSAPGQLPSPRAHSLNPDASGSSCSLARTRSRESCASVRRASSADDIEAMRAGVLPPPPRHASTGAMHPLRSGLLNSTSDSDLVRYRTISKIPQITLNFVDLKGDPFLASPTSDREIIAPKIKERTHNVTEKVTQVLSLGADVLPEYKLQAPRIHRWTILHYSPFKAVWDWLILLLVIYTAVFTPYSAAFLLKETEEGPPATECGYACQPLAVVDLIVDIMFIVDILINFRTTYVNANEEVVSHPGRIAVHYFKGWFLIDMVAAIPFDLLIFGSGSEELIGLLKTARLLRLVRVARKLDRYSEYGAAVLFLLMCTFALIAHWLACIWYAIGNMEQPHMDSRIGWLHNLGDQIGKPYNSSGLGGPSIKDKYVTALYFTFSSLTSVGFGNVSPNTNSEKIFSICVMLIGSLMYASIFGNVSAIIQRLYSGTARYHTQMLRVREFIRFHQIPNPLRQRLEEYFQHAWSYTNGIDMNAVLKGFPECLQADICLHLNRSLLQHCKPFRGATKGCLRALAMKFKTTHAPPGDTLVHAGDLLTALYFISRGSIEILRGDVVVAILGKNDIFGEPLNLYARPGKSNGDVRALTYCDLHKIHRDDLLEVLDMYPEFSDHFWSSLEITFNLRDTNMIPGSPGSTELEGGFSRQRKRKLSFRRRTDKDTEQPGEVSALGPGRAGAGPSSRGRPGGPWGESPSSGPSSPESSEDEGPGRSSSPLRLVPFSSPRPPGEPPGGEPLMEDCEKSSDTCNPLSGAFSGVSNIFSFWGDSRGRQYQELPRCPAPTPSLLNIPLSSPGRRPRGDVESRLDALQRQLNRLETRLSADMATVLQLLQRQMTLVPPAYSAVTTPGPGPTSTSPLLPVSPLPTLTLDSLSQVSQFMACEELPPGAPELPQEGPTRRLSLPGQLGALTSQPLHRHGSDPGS
row,Compound,"hERG current change (%, negative = inhibition) at 1uM"
1,CCc1cccc(C)c1NC(=O)CC1Oc2ccc(C)cc2NC1=O (stereo not drawn),11.9%
2,COc1cccc(N2CC(C(=O)NC3CCCCC3)CC2=O)c1 (stereo not drawn),3.45%
3,CC(C)C1=C2CCCCC2NC(=O)N1 (stereo not drawn),10.4%
4,CCc1nnc(NC(=O)C2Cc3ccccc3CN2S(=O)(=O)c2c(C)c(C)cc(C)c2C)s1 (stereo not drawn),6.37%
5,CCCN(CC(=O)Nc1ccccc1C)C(=O)c1ccc(Cl)c(S(=O)(=O)N2CCCC2)c1,13.8%
6,COc1ccc(C(O)(CCC(C)C)C(CN2CCOCC2)c2ccccc2)cc1.Cl (stereo not drawn),13.2%
7,CC1Oc2ccccc2N(CC(=O)N2CCc3ccccc32)C1=O (stereo not drawn),0.878%
8,Cn1c(=O)n(C)c2cc(C(=O)Nc3ccc(Br)cc3)ccc21,13.2%
9,COc1ccc(C(=O)c2ccc(OC)cc2O)c(O)c1,12.4%
10,O=C1c2cccc3c(N4CCOCC4)c([N+](=O)[O-])cc(c23)C(=O)N1c1cccc2ccccc12,12.7%
11,Cc1ccc(SCC(=O)Nc2ccccc2C(=O)N2CCOCC2)cc1,2.01%
12,CN1C(=O)[C@H]2[C@@H](c3ccc(F)cc3)N3C(=O)c4ccccc4NC(=O)[C@@]3(C)[C@H]2C1=O,-1.41%
13,COCCCNS(=O)(=O)c1ccc2c3c(cccc13)C(=O)S2,-5.43%
14,CCOC(=O)N1CCC(NC(=O)C2CCN(C(=O)c3cc4oc(C)cc4n3Cc3c(F)cccc3Cl)CC2)CC1,7.04%
15,Cc1sc2nc(SCC(=O)NCCCO)n(-c3ccccc3)c(=O)c2c1C,10.7%
16,O=C(Nc1cccc(Cl)c1)c1ccc(F)c(S(=O)(=O)N2CCN(c3ccccn3)CC2)c1,14.6%
17,Cc1ccc(NC(=O)N2CCCc3ccccc32)cc1,0.512%
18,COc1cccc(C(CNC(=O)C2CCN(C(=O)Nc3ccccc3)CC2)N(C)C)c1 (stereo not drawn),9.44%
19,O=C1c2ccc([N+](=O)[O-])cc2S(=O)(=O)N1Cc1ccccc1,7.96%
20,Cc1cccc(C(=O)NNC(=S)NC(=O)c2cccs2)c1,13.3%
21,Cc1cc(Oc2ccccc2)nc(N)n1,5.51%
22,O=[N+]([O-])c1cnn(-c2nc(-c3cccs3)cc(C(F)(F)F)n2)c1,-2.31%
23,Cc1c(NC(=O)c2cccc(NC(=O)c3ccco3)c2)cccc1C(=O)O,13.4%
24,O=C(CCN1C(=O)/C(=C/c2ccccc2)SC1=S)Nc1ccccn1,9.75%
